In PubChem BioAssay AID686978 (National Center for Advancing Translational Sciences (NCATS), 2013):
Where “and” joins values, the source holds several entries; their conditions need not be identical. Identical values can stand only once. Screen size: about 420,000 compounds; about 64,000 (15%) were called active. Inconclusive results, whose numbers are uncertain, are shown with a selection of clear calls. Calls follow the shape of the dose curve; as a rule, active = well fitted inhibition curve with a large enough effect; inconclusive = small, poorly fitted or top-dose-only effect; inactive = flat fitted curve, though single readings scatter. Potencies of inconclusive entries are doubtful fits and often do not repeat.

Assay: qHTS for Inhibitors of human tyrosyl-DNA phosphodiesterase 1 (TDP1): qHTS in cells in absence of CPT; also: nearly all actives have a fitted effect of over 55% in size
Details: DT40 Tdp1-/- hTDP1 cells, no CPT, ATP luminescence, 48 h; activity change, negative = growth inhibition: at 46.2 µM (top of the series)
Procedure, shortened: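 Cells were dispensed at 400 per well, compounds added by pin tool, plates incubated ≥48 hr at 37 °C, then CellTiter-Glo added for 30 min at room temperature before luminescence reading. Line: DT40 Tdp1-/- complemented with hTDP1; camptothecin omitted.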
% is scaled to controls: 0 for no effect and ±100 for the full control effect; potency is read from the fitted curve at half-maximal effect; tags tell the direction and shape of the fitted curve.

Structure (SMILES) | Potency | activity change, negative = growth inhibition
CCOCCCN(C)C1CCN(C(=O)c2oc3ccccc3c2NC(=O)Cc2ccc(F)cc2)CC1 | inactive | 
Cc1ccc(CNc2ccccc2C(=O)O)s1 | inactive | 
COc1ccc2[nH]c(-c3ccccc3)cc2c1 | inactive | 
Cc1nn(C(C)C(=O)Nc2cccc(F)c2)c(=O)c2c1sc1ccccc12 (stereo not drawn) | inconclusive: 7.31 µM [inhibitor, partial curve] | 
CC(=O)NCC(=O)N1CCC(n2nccc2NC(=O)CCCc2ccccc2)CC1 | inactive | 
COc1ccc(-n2sc3c(c2=S)-c2cc(OC)ccc2NC3(C)C)cc1 | inconclusive: 20.6 µM [inhibitor, single point] | 
CC(=O)c1ccc(Nc2nc(C(N)Cc3ccc(Cl)cc3)cs2)cc1 (stereo not drawn) | inconclusive: 16.4 µM [inhibitor, partial curve, poor fit] | 
COc1ccccc1C(=O)Nc1sc2c(c1C(=O)NCc1ccco1)CCCC2 | inactive | 
COC(=O)c1sc2ccccc2c1-n1cccc1C(=O)C(=O)Nc1ccc(OC)cc1 | inconclusive: 16.4 µM [inhibitor, single point] | 
Cc1ccc(C)c(NC(=O)CCC(=O)N/N=C2/CC(=O)CC(C)(C)C2)c1 | inactive | 
Nc1c(C(=O)O)sc2nc(-c3ccccc3)c3c(c12)CCCC3 | inconclusive: 23.1 µM [inhibitor, partial curve, poor fit] | 
COc1cccc2c1C(=O)c1ccc3ccccc3c1C2=O | inconclusive: 13 µM [inhibitor, partial curve] | 
O=C(COC(=O)C1=NN(c2ccccc2)C(=O)CC1)Nc1nc(-c2ccc(F)cc2)cs1 | inactive | 
CCOC(=O)C1CCCc2c1[nH]c1c(C(N)=O)cccc21 (stereo not drawn) | inactive | 
CCc1nnc(NC(=O)c2oc3cc(C)c(C)cc3c2C)s1 | inconclusive: 29.1 µM [inhibitor, single point] | 
Cc1ccc(N(C(=O)C(F)(F)F)C(C(=O)NC2CCCCC2)c2cccs2)cc1 (stereo not drawn) | inconclusive: 9.2 µM [inhibitor, partial curve] | 
COc1cc(C(=O)NCc2nnc(SCC(=O)N3CCCC3)o2)cc(OC)c1OC | inactive | 
N#Cc1ccc2c(c1)nc1ccccn12 | inactive | 
O=C(Nc1ccc(F)c(Cl)c1)c1nsc(Cl)c1Cl | inconclusive: 0.731 µM [inhibitor, partial curve, poor fit] | 
CC(C)C(c1nnnn1Cc1ccccc1)N1CCN(Cc2ccc3c(c2)OCO3)CC1 (stereo not drawn) | inconclusive: 29.1 µM [inhibitor, partial curve, poor fit] | 
C=CCn1c(=NC(=O)C2COc3ccccc3O2)sc2cccc(OC)c21 (stereo not drawn) | active: 23.1 µM | 
CCn1cc(CNC(=O)c2ccc(OC3CCN(Cc4ccccn4)CC3)cc2)cn1 | inconclusive: 7.31 µM [inhibitor, partial curve] | 
Cc1cc(C)nc(SCc2ccc(C(=O)NNC(=O)Nc3cccc(Cl)c3)cc2)n1 | active: 13 µM | 

Structure (SMILES) | Potency | activity change, negative = growth inhibition
CCCCSc1ccc2nc(-c3ccc(C#N)cc3)cn2c1 | inconclusive: 29.1 µM [inhibitor, single point] | 
N#Cc1nc(-c2ccc(OCc3ccc(Cl)cc3)cc2)oc1NCCCn1ccnc1 |  | inconclusive: -30.5% [inhibitor]
C[C@H](CO)N1C[C@H](C)[C@H](CN(C)Cc2ccncc2)OCc2ccccc2-c2c(n(C)c3ccccc23)C1=O | active: 16.4 µM | 
Cc1cccc2nc(-c3ccco3)c(Nc3ccccc3)n12 | inconclusive: 29.1 µM [inhibitor, single point] | 
CCC(Oc1ccccc1)C(=O)OCC(=O)Nc1sccc1C(N)=O (stereo not drawn) | inconclusive: 16.4 µM [inhibitor, partial curve] | 
Cc1csc(N2CCCC2c2nc3cc(C(F)(F)F)ccc3n2CCOCCO)n1 (stereo not drawn) | inconclusive: 0.0164 µM [inhibitor, full curve, poor fit] | 
COC(=O)[C@@]12C[C@@H](CC(=O)NCCCCc3ccccc3)C(=O)N(Cc3ccco3)C1=CCC(C)(C)C2 | inconclusive: 16.4 µM [inhibitor, single point] | 
Cc1onc(-c2c(F)cccc2Cl)c1C(=O)N(C)C1CCCCC1 | inconclusive: 25.9 µM [inhibitor, single point] | 
CCCCN(C(=O)c1ccc(S(=O)(=O)N2CCCCC2)cc1)C1CCS(=O)(=O)C1 (stereo not drawn) | inactive | 
Cc1cc(C)cc(NCC(=O)Nc2c(C)cccc2C)c1 | inconclusive: 29.1 µM [inhibitor, single point] | 
Cc1cc2nc(-c3ccco3)c(CC(C)(C)C)n2c(C)c1Br | active: 23.1 µM | 
Cc1ccccc1C(OCCN(C)C)c1ccccc1 (stereo not drawn) | inconclusive: 13 µM [inhibitor, partial curve] and inconclusive: 22.4 µM [inhibitor, single point] | 
CCn1c(=NC(=O)CSCC(=O)Nc2nccs2)sc2ccccc21 | inconclusive: 9.2 µM [inhibitor, partial curve] | 
COc1ccc(N(Cc2ccccc2)S(=O)(=O)c2cccc(C(=O)Nc3ccccn3)c2)cc1 | inconclusive: 23.1 µM [inhibitor, single point] | 
OCC1(Cc2ccc(F)cc2F)CCCN(Cc2ccc(Cl)cc2)C1 (stereo not drawn) |  | inconclusive: -30.8% [inhibitor]
CCOC(=O)Cn1c(=NC(=O)c2cc(-c3cccs3)nc3ccccc23)sc2cc(S(N)(=O)=O)ccc21 | active: 16.4 µM | 
CN(C)c1ccc(-c2nnc(-c3cccs3)o2)cc1 | inactive | 
CCN(c1ccccc1)S(=O)(=O)c1cc(C(=O)Nc2cccc(Cl)c2)ccc1F | inconclusive: 29.1 µM [inhibitor, single point] | 
CC1CCCN(Cc2c(O)ccc3c(=O)c(-c4ccccc4Cl)c(C(F)(F)F)oc23)C1 (stereo not drawn) | inactive | 
CC(C)Oc1ccc(Br)cc1C(=O)N/N=C/c1c[nH]c2ccccc12 | inconclusive: 20.6 µM [inhibitor, single point] | 
O=C(NC(=S)Nc1ccc(S(=O)(=O)N2CCCC2)cc1)c1cccs1 | inconclusive: 20.6 µM [inhibitor, single point] | 
O=C(C=Cc1ccco1)c1cc(Cl)ccc1O | inconclusive: 29.1 µM [inhibitor, single point] | 
CCc1ccc2[nH]c(=O)c(C(c3nnnn3CC3CCCO3)N3CCCc4ccccc43)cc2c1 (stereo not drawn) | inconclusive: 29.1 µM [inhibitor, single point] | 

Structure (SMILES) | Potency | activity change, negative = growth inhibition
COc1ccc(OC)c(N2CC(O)(c3ccccc3)[N+]3=C2SCCC3)c1 (stereo not drawn) | inconclusive: 23.1 µM [inhibitor, single point] | 
Cc1cc(=O)[nH]c(N/N=C/C(C)c2ccccc2)n1 (stereo not drawn) | inconclusive: 29.1 µM [inhibitor, single point] | 
C/C(=N/NC(=O)c1cc(O)c(O)c(O)c1)c1ccc([N+](=O)[O-])cc1 | inconclusive: 29.1 µM [inhibitor, single point] | 
CCC(=O)c1ccc(OCC(=O)Nc2cc(S(=O)(=O)N3CCCCC3)ccc2N2CCN(CC)CC2)cc1 | active: 18.4 µM | 
CC(=C/c1ccccc1)/C=C1/SC(N2CCOCC2)=NC1=O | inconclusive: 25.9 µM [inhibitor, single point] | 
Cc1cc(Cl)c(S(=O)(=O)NC2CCCCC2)cc1OCC(=O)Nc1nncs1 | active: 23.1 µM | 
O=C(c1ccc(-c2ccccc2)cc1)N1CCN(c2nc3ccccc3o2)CC1 | inconclusive: 2.91 µM [inhibitor, single point] | 
Cc1cc(SCC(=O)OC/C(O)=C(\C#N)c2nc3ccccc3[nH]2)c(C)cc1Br | inconclusive: 20.6 µM [inhibitor, single point] | 
NC(c1ccc(F)c(F)c1)c1nc(-c2cncnc2)cs1 (stereo not drawn) | inconclusive: 29.1 µM [inhibitor, single point] | 
O=C(NCc1nnc(SCC(=O)N2CCCc3ccccc32)o1)c1c(F)cccc1Cl | inactive | 
CC[C@@]1(c2ccccc2OC)C(=O)N(C(=O)OC)N1C(=O)OC | inconclusive: 23.1 µM [inhibitor, partial curve, poor fit] | 
Cc1cccc(CNc2ccnc(-c3ccccc3C(F)(F)F)n2)c1 | inconclusive: 29.1 µM [inhibitor, single point] | 
Cc1ccccc1OCCn1cnc2c(N)ncnc21 | inconclusive: 29.1 µM [inhibitor, single point] | 
Cc1cccc(NC(=O)C(CC(C)C)NC(=O)C2CCC(C)CC2)n1 (stereo not drawn) | inactive | 
COc1ccc(NC(=O)N(C)[C@H]2C[C@H]3c4[nH]c5ccccc5c4CCN3C(=O)[C@H]2[C@H](C)O)cc1 | inconclusive: 25.9 µM [inhibitor, partial curve, poor fit] | 
Cc1csc(NC(=O)c2c(-c3c(F)cccc3Cl)noc2C)n1 | inconclusive: 20.6 µM [inhibitor, partial curve] | 
O=C(/C=C/c1cccs1)Nc1scc(-c2ccccc2)c1C(=O)O | inactive | 
COc1ccc(CCNC(=O)COc2ccc(N(C)S(=O)(=O)c3ccc(Cl)cc3)cc2)cc1 | inconclusive: 20.6 µM [inhibitor, single point] | 
COc1ccc(C2=CC(=O)C[C@H](COCc3ccccc3)N(C(=O)OC(C)(C)C)O2)cc1 | active: 18.4 µM | 
CCOc1ccc2[nH]c3c(NCCCOC)ncnc3c2c1 | inconclusive: 23.1 µM [inhibitor, partial curve] | 
O=C(c1cccc(-n2cnnn2)c1)N1CC=C(c2ccccc2)CC1 | inconclusive: 25.9 µM [inhibitor, single point] | 
O=C(COc1ccc2ccc(=O)oc2c1)N1CCc2ccccc21 | inactive | 
